# The list shows a part of the results. At the low end of the ranking the order means little.
# Biological target: SIX1-Q177R homeodomain (UniProt Q15475)
# Assay: universal protein binding microarray
# Conditions: Universal all-10-mer PBM (8x60K, AMADID 030236), 300 nM GST-tagged protein, Alexa Fluor 488 anti-GST; buffer, salt, pH and temperature not stated; high values mean tight binding; most listed sequences are background and not binding sites; double strand, one strand shown
row,Sequence,binding signal [E-score]
1,CAAGAACC,-0.142
2,CCAGAGGA,0.0751
3,AGTACCTA,0.114
4,CGGATCCG,0.183
5,GGATTGCC,-0.304
6,GTACTGTA,-0.0449
7,AAATCCGC,-0.00134
8,CACCTCTC,0.121
9,ACTCTCGG,0.111
10,TCAACGCA,-0.215
11,TAAGTGGA,-0.0829
12,GATAAGGA,-0.0321
13,CCGCTAAC,-0.0946
14,AAAGTGTT,0.285
15,GCCTGACC,0.0079
16,AGTAAAGC,-0.318
17,GCTCGGGA,-0.0653
18,CATACGAA,-0.148
19,CAGGGGCC,-0.14
20,ACGCATCA,-0.048
21,CCTTACAC,0.439
22,AAACAGAT,-0.26
23,AGAAGGAG,-0.163
24,GGATATCC,0.0614
25,CTAACTCC,0.0567

row,Sequence,binding signal [E-score]
1,CAGGTGTA,0.464
2,AGAACAAA,-0.309
3,ACCACGGA,0.178
4,GAGCATAA,-0.119
5,ACCGCTAA,-0.149
6,CGAGTCTC,0.0724
7,GTTACTCA,-0.112
8,CCCACGCG,-0.0181
9,ACCCATGG,0.234
10,AAGTTGTA,-0.0367
11,CGATGTAG,-0.13
12,AGAACTGG,-0.233
13,CGGATCAG,0.174
14,CACATCAA,-0.205
15,GTTCTCAA,-0.265
16,AGCTAAGG,-0.215
17,ACTGTCTC,-0.139
18,TACGTCGA,-0.16
19,AGGTCACT,0.0289
20,TACCACTA,0.0694
21,ATAATGGG,0.02
22,ATGTTATA,-0.141
23,ATAGAAAT,-0.121
24,ACGTGGGA,0.113
25,AACAGATC,-0.19

row,Sequence,binding signal [E-score]
1,GAATCCGA,0.111
2,AACTGCCA,-0.253
3,TACTCGAA,-0.122
4,AACTGTTC,-0.132
5,AAGAGACT,-0.275
6,AGGGTTAG,0.0726
7,ATCATTGC,-0.147
8,AGAGTCCA,0.0229
9,ACTACCTA,0.0214
10,TCGGACCA,-0.124
11,GGAAGATA,0.112
12,TACGCCCA,0.12
13,CACTGAGG,0.227
14,CGCTGCAC,0.14
15,ATGGTAGC,-0.157
16,AATGCCTG,-0.2
17,AAACTTAC,-0.0389
18,AGGCGGAC,-0.114
19,CGCTGACA,0.124
20,ACTAGCAC,0.194
21,TATAGGGA,-0.145
22,ATCTACTC,0.136
23,AAAAAGAT,-0.268
24,ATAACTGC,-0.113
25,ATTCACAA,0.0444

row,Sequence,binding signal [E-score]
1,ATCCAGAA,0.0661
2,CATTTTAG,-0.138
3,ATCCATAC,-0.0277
4,ATGAAGCG,-0.154
5,GTCTGGCA,-0.209
6,GCATCATA,-0.0183
7,GCGATGAA,-0.00868
8,ACGAACGT,-0.0992
9,AATACACC,0.46
10,GAATACCA,0.00666
11,ATATTGGA,-0.0673
12,AATGGCCG,-0.104
13,ATTGGTCC,-0.113
14,ATCCCAAG,-0.0145
15,CAGTAGCA,-0.19
16,TCGAAAAA,-0.207
17,TACACGTA,0.355
18,ATACTGCA,0.0155
19,CTGTCTTC,-0.281
20,ACCTGCGC,0.0978
21,AGTCCAAC,-0.0677
22,ATACACAG,0.187
23,AGAGGAGG,-0.182
24,AAAATCAG,0.0139
25,GCCATATA,0.109

row,Sequence,binding signal [E-score]
1,TAAGTGCA,-0.016
2,TAAAGGCA,-0.165
3,ACATGTCT,-0.161
4,ATACTCCG,0.195
5,CAACGTGA,-0.115
6,CTGAGAGC,-0.0686
7,ACGCCTAA,0.0755
8,ATGTGCCG,-0.0987
9,CCCGGCCG,0.0377
10,GGCGAAAC,-0.0939
11,GGGCTACC,-0.154
12,CCGGAGTC,0.224
13,CGGTGACC,0.0172
14,ACTAAGTG,0.0303
15,ATGACAGC,-0.254
16,CCTCGAGC,-0.0393
17,ACGCCTTA,0.099
18,ACGGTTCA,-0.0149
19,TTATGCAA,-0.00447
20,CGCGGTAC,0.103
21,TACTGCGA,-0.135
22,GCTATAAC,-0.00284
23,AGCTGCAC,0.0226
24,ACGGGGAC,0.00281
25,GAGGTAAC,0.00303

row,Sequence,binding signal [E-score]
1,AAGAAAGC,-0.247
2,TGAGAAAA,-0.291
3,GATATCAC,0.0237
4,CCTTCGTC,-0.0832
5,CGAGATCG,-0.12
6,CGGTCGTA,0.0392
7,GGCATACC,-0.124
8,ATGCTTTG,-0.204
9,CGACTCAA,0.0383
10,AAAGAATA,-0.0742
11,GGTACCCA,0.0105
12,AATACAAT,-0.182
13,TACCCTGA,0.185
14,AAATTAAG,0.0314
15,ATCCGCAC,0.171
16,GTGGCGAA,-0.122
17,GGATTAAC,-0.137
18,CAATATGC,-0.0635
19,ATTCGGAG,-0.0206
20,CATGACTC,0.0678
21,CATCGCGC,-0.264
22,AAAGCGAG,0.0442
23,CGGGTTTA,0.0278
24,AATCGAAC,-0.024
25,CATTGGAA,-0.105

row,Sequence,binding signal [E-score]
1,GCGGTACA,0.305
2,ACACTTCC,0.349
3,ACCCTACT,0.269
4,CAAACCCA,0.0815
5,AACTAGTA,-0.029
6,AGGCGGGC,-0.0488
7,CACAGTCC,-0.203
8,AGACAAGA,-0.0558
9,AGCCGGCG,-0.0309
10,GCAGAAAA,-0.0246
11,AAAACGTG,-0.0701
12,TGGACCAA,0.0846
13,CACATTCC,-0.0465
14,TCCCAACA,0.0778
15,GCGTTCTA,-0.0248
16,ATCGCCTG,-0.243
17,GATAAGAA,-0.169
18,AGTGTCGC,0.415
19,AAAGAGCT,-0.197
20,CACCCAGA,0.189
21,CTAAACTC,-0.122
22,TAAGCTCA,-0.112
